# Source: the supplement of paper PMC9588766
# Structures can show the parent of a compound that is named as a salt. Over roughly 1,900 compounds, “cell viability of compound + 1 nM pemigatinib relative to pemigatinib-only (DMSO) wells” has its median near 0.95; the lowest 2% begin near 0.22. The list shows a part of the results.
# System: PDC-DUC18828
# Assay: cell viability of compound + 1 nM pemigatinib relative to pemigatinib-only (DMSO) wells (fraction); PDC-DUC18828 is a patient-derived cholangiocarcinoma cell line; higher = less growth inhibition
# Conditions: first compound 1 µM; pemigatinib concentration 1 nM; 72 h
# Protocol: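 Selleck Bioactive library screen in the patient-derived FGFR2 fusion-positive ICC cell line PDC-DUC18828 (500 cells/well). Each compound was tested at 1 uM with 1 nM pemigatinib, in triplicate, for 72 h. Viability was read by CellTiter-Glo and normalised to plate DMSO controls. Value is the paper's averaged normalised viability.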
row,Structure (SMILES),cell viability
1,CC1(C)CCC(C)(C)c2cc(NC(=O)c3ccc(C(=O)O)cc3)ccc21 [Tamibarotene] + CCN1C(=O)N(c2c(F)c(OC)cc(OC)c2F)Cc2cnc3[nH]c(CN4CCOCC4)cc3c21 [pemigatinib],0.903
2,CN(C)CC/C=C1/c2ccccc2Sc2ccc(Cl)cc21 [Chlorprothixene] + CCN1C(=O)N(c2c(F)c(OC)cc(OC)c2F)Cc2cnc3[nH]c(CN4CCOCC4)cc3c21 [pemigatinib],0.93
3,Cn1cc(CNCC2CCN(c3ncc(C(=O)NO)cn3)CC2)c2ccccc21 + CCN1C(=O)N(c2c(F)c(OC)cc(OC)c2F)Cc2cnc3[nH]c(CN4CCOCC4)cc3c21 [pemigatinib],0.0657
4,CC(=O)[C@H]1CC[C@H]2[C@@H]3CCC4=CC(=O)CC[C@]4(C)[C@H]3CC[C@]12C [Progesterone] + CCN1C(=O)N(c2c(F)c(OC)cc(OC)c2F)Cc2cnc3[nH]c(CN4CCOCC4)cc3c21 [pemigatinib],0.926
5,CN(C)CCOC(c1ccccc1)c1ccccc1 [Diphenhydramine HCl] + CCN1C(=O)N(c2c(F)c(OC)cc(OC)c2F)Cc2cnc3[nH]c(CN4CCOCC4)cc3c21 [pemigatinib],1.03
6,COc1ccc2[nH]c([S+]([O-])Cc3ncc(C)c(OC)c3C)nc2n1 (stereo not given) [Tenatoprazole] + CCN1C(=O)N(c2c(F)c(OC)cc(OC)c2F)Cc2cnc3[nH]c(CN4CCOCC4)cc3c21 [pemigatinib],0.966
7,CCOC(=O)CCNc1cc(N2CCc3ccccc3CC2)nc(-c2ccccn2)n1 + CCN1C(=O)N(c2c(F)c(OC)cc(OC)c2F)Cc2cnc3[nH]c(CN4CCOCC4)cc3c21 [pemigatinib],0.822
8,CCNC(=O)c1[nH]nc(-c2cc(Cl)c(O)cc2O)c1-c1ccc(OC)cc1 + CCN1C(=O)N(c2c(F)c(OC)cc(OC)c2F)Cc2cnc3[nH]c(CN4CCOCC4)cc3c21 [pemigatinib],0.701
9,C[C@H](NC(=O)/C(C#N)=C/c1cccc(Br)n1)c1ccccc1 + CCN1C(=O)N(c2c(F)c(OC)cc(OC)c2F)Cc2cnc3[nH]c(CN4CCOCC4)cc3c21 [pemigatinib],0.934
10,CC(C)c1ccc(NC(=O)Cn2cnc3c2c(=O)n(C)c(=O)n3C)cc1 + CCN1C(=O)N(c2c(F)c(OC)cc(OC)c2F)Cc2cnc3[nH]c(CN4CCOCC4)cc3c21 [pemigatinib],0.863
11,CCNC(=O)Nc1ccc(-c2nc3c(c(N4CCOC[C@@H]4C)n2)CCN(C2COC2)C3)cc1 + CCN1C(=O)N(c2c(F)c(OC)cc(OC)c2F)Cc2cnc3[nH]c(CN4CCOCC4)cc3c21 [pemigatinib],0.446
12,CCCN(CCC)S(=O)(=O)c1ccc(C(=O)O)cc1 [Probenecid] + CCN1C(=O)N(c2c(F)c(OC)cc(OC)c2F)Cc2cnc3[nH]c(CN4CCOCC4)cc3c21 [pemigatinib],1.02
13,C[C@]12CC[C@@H]3c4ccc(O)cc4CC[C@H]3[C@@H]1CC[C@@H]2O [Estradiol] + CCN1C(=O)N(c2c(F)c(OC)cc(OC)c2F)Cc2cnc3[nH]c(CN4CCOCC4)cc3c21 [pemigatinib],0.944
14,Cc1ncc(CO)c(CO)c1O [Pyridoxine HCl] + CCN1C(=O)N(c2c(F)c(OC)cc(OC)c2F)Cc2cnc3[nH]c(CN4CCOCC4)cc3c21 [pemigatinib],0.895
15,O=C(O)c1ccc(-c2c[nH]c3ncc(-c4ccccc4)cc23)cc1C1CCCC1 + CCN1C(=O)N(c2c(F)c(OC)cc(OC)c2F)Cc2cnc3[nH]c(CN4CCOCC4)cc3c21 [pemigatinib],0.904
16,CC1(C)[C@H](C(=O)O)N2C(=O)C[C@H]2S1(=O)=O [Sulbactam] + CCN1C(=O)N(c2c(F)c(OC)cc(OC)c2F)Cc2cnc3[nH]c(CN4CCOCC4)cc3c21 [pemigatinib],0.953
17,CC1(C)[C@H](C(=O)O)N2C(=O)C[C@H]2S1(=O)=O [Sulbactam sodium] + CCN1C(=O)N(c2c(F)c(OC)cc(OC)c2F)Cc2cnc3[nH]c(CN4CCOCC4)cc3c21 [pemigatinib],0.932
18,C=CC(=O)Nc1cc(Nc2nccc(-c3cn(C)c4ccccc34)n2)c(OC)cc1N(C)CCN(C)C + CCN1C(=O)N(c2c(F)c(OC)cc(OC)c2F)Cc2cnc3[nH]c(CN4CCOCC4)cc3c21 [pemigatinib],0.859
19,C#Cc1cccc(Nc2ncnc3cc4c(cc23)OCCOCCOCCO4)c1 [Icotinib] + CCN1C(=O)N(c2c(F)c(OC)cc(OC)c2F)Cc2cnc3[nH]c(CN4CCOCC4)cc3c21 [pemigatinib],0.801
20,Cc1ccc(NCCCc2ccccc2)c(N)c1 + CCN1C(=O)N(c2c(F)c(OC)cc(OC)c2F)Cc2cnc3[nH]c(CN4CCOCC4)cc3c21 [pemigatinib],1.04
21,C=CC(=O)Nc1cc(Nc2nccc(-c3c[nH]c4ccccc34)n2)c(OC)cc1N(C)CCN(C)C + CCN1C(=O)N(c2c(F)c(OC)cc(OC)c2F)Cc2cnc3[nH]c(CN4CCOCC4)cc3c21 [pemigatinib],0.776
22,CC1=C(/C=C/C(C)=C/C=C/C(C)=C/C(=O)O)C(C)(C)CCC1 [Tretinoin] + CCN1C(=O)N(c2c(F)c(OC)cc(OC)c2F)Cc2cnc3[nH]c(CN4CCOCC4)cc3c21 [pemigatinib],0.86
23,C[C@]12CC[C@H](O)CC1=CC[C@@H]1[C@@H]2CC[C@]2(C)C(n3cnc4ccccc43)=CC[C@@H]12 [Galeterone] + CCN1C(=O)N(c2c(F)c(OC)cc(OC)c2F)Cc2cnc3[nH]c(CN4CCOCC4)cc3c21 [pemigatinib],0.923
24,N=C(N)NS(=O)(=O)c1ccc(N)cc1 [Sulfaguanidine] + CCN1C(=O)N(c2c(F)c(OC)cc(OC)c2F)Cc2cnc3[nH]c(CN4CCOCC4)cc3c21 [pemigatinib],1.02
25,O=C(Nc1nc2cccc(-c3ccc(CN4CCS(=O)(=O)CC4)cc3)n2n1)C1CC1 [Filgotinib (GLPG0634)] + CCN1C(=O)N(c2c(F)c(OC)cc(OC)c2F)Cc2cnc3[nH]c(CN4CCOCC4)cc3c21 [pemigatinib],0.911
